Data as given in the RNAGym collection of RNA variant scans (doi:10.1101/gad.245936.114).
Variants at the floor of the assay are shown more often than the library holds them.

B1: tRNA (parent)
chain: CUCUCGGUAGCCAAGUUGGUUUAAGGCGCAAGACUUUAAUUUAUCACUACGAAAUCUUGAGAUCGGGCGUUCGACUCGCCCCCGGGAGAUUUUUUCCUCGAGCAA

Variants of: B1
Test: nonsense suppression (GFP-seq) (ratio to wild type); higher = more function; SUP4oc tRNA, yeast GFP reporter sort-seq
Outline: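 Raffinose/galactose medium with 80 mg/L adenine was used to grow yeast carrying genome-integrated tRNA variants (~3% random-mutation library), RFP, and a galactose-driven GFP ochre reporter. Cells went into GFP/RFP bins, which were Illumina-sequenced, and variants with ≥100 reads and ≥30 cells were scored. Nonsense suppression (GFPSEQ) is the per-bin median GFP/RFP weighted by estimated cell share and expressed relative to the unmutated parent tRNA.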
With CUCUCGGUAGCCAAGUUGGUUUAAGGCGCAAGACUUUAAUUUAUCACUACGAAAUCUUGAGAUCGGGCGUUCGACUUGCCCCCGAGAGAUUUUUUCCUCGAGCAA [C77U G85A] the nonsense suppression was ≤ 0.026. With CUCUCGGUAGCCAAGUUGGUUUAAGGCGCAAGACUUUAAUUUAUCACUACGAAAUCUUGAGAUCGGGCGUUCGACUUGCCCCCGGGACAUUUUUUCCUCGAGCAA [C77U G88C] the nonsense suppression was ≤ 0.026. CUCUCGGUAGCCAAGUUGGUUUAAGGCGCAAGACUUUAAUUUAUCACUACGAAAUCUUGAGAUCGGGCGUUCGACUCAGCCCCGGGAGAUUUUUUCCUCGAGCAA [G78A C79G] showed a nonsense suppression of 0.0629. For CUCUCGGUAGCCAAGUUGGUUUAAGGCGCAAGACUUUAAUUUAUCACUACGAAAUCUUGAGAUCGGGCGUUCGACUCACGCCCGGGAGAUUUUUUCCUCGAGCAA [G78A C80G], the nonsense suppression was ≤ 0.026. For CUCUCGGUAGCCAAGUUGGUUUAAGGCGCAAGACUUUAAUUUAUCACUACGAAAUCUUGAGAUCGGGCGUUCGACUCACUCCCGGGAGAUUUUUUCCUCGAGCAA [G78A C80U], the nonsense suppression was ≤ 0.026. With CUCUCGGUAGCCAAGUUGGUUUAAGGCGCAAGACUUUAAUUUAUCACUACGAAAUCUUGAGAUCGGGCGUUCGACUCACCUCCGGGAGAUUUUUUCCUCGAGCAA [G78A C81U] the nonsense suppression was ≤ 0.026. CUCUCGGUAGCCAAGUUGGUUUAAGGCGCAAGACUUUAAUUUAUCACUACGAAAUCUUGAGAUCGGGCGUUCGACUCACCCACGGGAGAUUUUUUCCUCGAGCAA [G78A C82A] gave a nonsense suppression of 0.0338. Work on CUCUCGGUAGCCAAGUUGGUUUAAGGCGCAAGACUUUAAUUUAUCACUACGAAAUCUUGAGAUCGGGCGUUCGACUCACCCCUGGGAGAUUUUUUCCUCGAGCAA [G78A C83U] yielded a nonsense suppression of 0.0266. With CUCUCGGUAGCCAAGUUGGUUUAAGGCGCAAGACUUUAAUUUAUCACUACGAAAUCUUGAGAUCGGGCGUUCGACUCACCCCCAGGAGAUUUUUUCCUCGAGCAA [G78A G84A] the nonsense suppression was 0.459. With CUCUCGGUAGCCAAGUUGGUUUAAGGCGCAAGACUUUAAUUUAUCACUACGAAAUCUUGAGAUCGGGCGUUCGACUCACCCCCUGGAGAUUUUUUCCUCGAGCAA [G78A G84U] the nonsense suppression was 0.0325. For CUCUCGGUAGCCAAGUUGGUUUAAGGCGCAAGACUUUAAUUUAUCACUACGAAAUCUUGAGAUCGGGCGUUCGACUCACCCCCGUGAGAUUUUUUCCUCGAGCAA [G78A G85U], the nonsense suppression was 0.0673. For CUCUCGGUAGCCAAGUUGGUUUAAGGCGCAAGACUUUAAUUUAUCACUACGAAAUCUUGAGAUCGGGCGUUCGACUCACCCCCGGGAUAUUUUUUCCUCGAGCAA [G78A G88U], the nonsense suppression was ≤ 0.026. With CUCUCGGUAGCCAAGUUGGUUUAAGGCGCAAGACUUUAAUUUAUCACUACGAAAUCUUGAGAUCGGGCGUUCGACUCCCCCCCGGGCGAUUUUUUCCUCGAGCAA [G78C A87C] the nonsense suppression was ≤ 0.026. For CUCUCGGUAGCCAAGUUGGUUUAAGGCGCAAGACUUUAAUUUAUCACUACGAAAUCUUGAGAUCGGGCGUUCGACUCCCCCCCGGGAGUUUUUUUCCUCGAGCAA [G78C A89U], the nonsense suppression was ≤ 0.026. With CUCUCGGUAGCCAAGUUGGUUUAAGGCGCAAGACUUUAAUUUAUCACUACGAAAUCUUGAGAUCGGGCGUUCGACUCCCCCGCGGGAGAUUUUUUCCUCGAGCAA [G78C C82G] the nonsense suppression was ≤ 0.026. With CUCUCGGUAGCCAAGUUGGUUUAAGGCGCAAGACUUUAAUUUAUCACUACGAAAUCUUGAGAUCGGGCGUUCGACUCCCCCCCGUGAGAUUUUUUCCUCGAGCAA [G78C G85U] the nonsense suppression was 0.232. In the case of CUCUCGGUAGCCAAGUUGGUUUAAGGCGCAAGACUUUAAUUUAUCACUACGAAAUCUUGAGAUCGGGCGUUCGACUCCCCCCCGGCAGAUUUUUUCCUCGAGCAA [G78C G86C], the nonsense suppression is reported as ≤ 0.026. CUCUCGGUAGCCAAGUUGGUUUAAGGCGCAAGACUUUAAUUUAUCACUACGAAAUCUUGAGAUCGGGCGUUCGACUCUCCCUCGGGAGAUUUUUUCCUCGAGCAA [G78U C82U] showed a nonsense suppression of 0.105. With CUCUCGGUAGCCAAGUUGGUUUAAGGCGCAAGACUUUAAUUUAUCACUACGAAAUCUUGAGAUCGGGCGUUCGACUCUCCCCAGGGAGAUUUUUUCCUCGAGCAA [G78U C83A] the nonsense suppression was 0.0425. Work on CUCUCGGUAGCCAAGUUGGUUUAAGGCGCAAGACUUUAAUUUAUCACUACGAAAUCUUGAGAUCGGGCGUUCGACUCUCCCCCAGGAGAUUUUUUCCUCGAGCAA [G78U G84A] yielded a nonsense suppression of 0.0428. With CUCUCGGUAGCCAAGUUGGUUUAAGGCGCAAGACUUUAAUUUAUCACUACGAAAUCUUGAGAUCGGGCGUUCGACUCUCCCCCGGGAAAUUUUUUCCUCGAGCAA [G78U G88A] the nonsense suppression was ≤ 0.026. For CUCUCGGUAGCCAAGUUGGUUUAAGGCGCAAGACUUUAAUUUAUCACUACGAAAUCUUGAGAUCGGGCGUUCGACUCUCCCCCGGGACAUUUUUUCCUCGAGCAA [G78U G88C], the nonsense suppression was ≤ 0.026. For CUCUCGGUAGCCAAGUUGGUUUAAGGCGCAAGACUUUAAUUUAUCACUACGAAAUCUUGAGAUCGGGCGUUCGACUCGACCCCGGGAGAUUUUUUCCUCGAGCAA [C79A], the nonsense suppression was ≤ 0.026. In the case of CUCUCGGUAGCCAAGUUGGUUUAAGGCGCAAGACUUUAAUUUAUCACUACGAAAUCUUGAGAUCGGGCGUUCGACUCGACCCCGGGCGAUUUUUUCCUCGAGCAA [C79A A87C], the nonsense suppression is reported as ≤ 0.026. With CUCUCGGUAGCCAAGUUGGUUUAAGGCGCAAGACUUUAAUUUAUCACUACGAAAUCUUGAGAUCGGGCGUUCGACUCGACCCCGGGUGAUUUUUUCCUCGAGCAA [C79A A87U] the nonsense suppression was ≤ 0.026. With CUCUCGGUAGCCAAGUUGGUUUAAGGCGCAAGACUUUAAUUUAUCACUACGAAAUCUUGAGAUCGGGCGUUCGACUCGACCACGGGAGAUUUUUUCCUCGAGCAA [C79A C82A] the nonsense suppression was ≤ 0.026. With CUCUCGGUAGCCAAGUUGGUUUAAGGCGCAAGACUUUAAUUUAUCACUACGAAAUCUUGAGAUCGGGCGUUCGACUCGACCCCGGAAGAUUUUUUCCUCGAGCAA [C79A G86A] the nonsense suppression was ≤ 0.026.
